# From the supplement of paper PMC8728848
# Some of the results follow.
# What was measured:
# Assay in all cases: glycan array binding signal (z-score within array); higher = stronger binding
# Details in all cases: glycan notation: IUPAC condensed, linker removed
# [1] = target: Neu5Ac(a2-3)Gal(b1-4)GlcNAc
# Outline: (§1)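 Arrays were curated from the Consortium for Functional Glycomics database, 3228 in total, and kept only where the protein sequence was available. Binding is expressed as a within-array Z-score. This score was averaged across arrays of the same protein sequence at different concentrations or buffers and across linkers, and negative values can be read as non-binding.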
# [2] = target: Neu5Ac(a2-3)Gal(b1-4)GlcNAc(b1-2)Man
# Outline: as §1
# [3] = target: Neu5Ac(a2-3)Gal(b1-4)GlcNAc(b1-2)Man(a1-3)[GlcNAc(b1-4)][Neu5Ac(a2-3)Gal(b1-4)GlcNAc(b1-2)Man(a1-6)]Man(b1-4)GlcNAc(b1-4)GlcNAc
# Outline: as §1
# [4] = target: Neu5Ac(a2-3)Gal(b1-4)GlcNAc(b1-2)Man(a1-3)[Neu5Ac(a2-3)Gal(b1-4)GlcNAc(b1-2)Man(a1-6)]Man(b1-4)GlcNAc(b1-4)GlcNAc
# Outline: as §1
# [5] = target: Neu5Ac(a2-3)Gal(b1-4)GlcNAc(b1-2)Man(a1-3)[Neu5Ac(a2-3)Gal(b1-4)GlcNAc(b1-2)Man(a1-6)]Man(b1-4)GlcNAc(b1-4)[Fuc(a1-6)]GlcNAc
# Outline: as §1
# [6] = target: Neu5Ac(a2-3)Gal(b1-4)GlcNAc(b1-2)Man(a1-3)[Neu5Ac(a2-6)Gal(b1-4)GlcNAc(b1-2)Man(a1-6)]Man(b1-4)GlcNAc(b1-4)GlcNAc
# Outline: as §1
# [7] = target: Neu5Ac(a2-3)Gal(b1-4)GlcNAc(b1-2)[Neu5Ac(a2-3)Gal(b1-4)GlcNAc(b1-4)]Man(a1-3)[GlcNAc(b1-4)][Neu5Ac(a2-3)Gal(b1-4)GlcNAc(b1-2)[Neu5Ac(a2-3)Gal(b1-4)GlcNAc(b1-6)]Man(a1-6)]Man(b1-4)GlcNAc(b1-4)GlcNAc
# Outline: as §1
# [8] = target: Neu5Ac(a2-3)Gal(b1-4)GlcNAc(b1-2)[Neu5Ac(a2-3)Gal(b1-4)GlcNAc(b1-4)]Man(a1-3)[GlcNAc(b1-4)][Neu5Ac(a2-3)Gal(b1-4)GlcNAc(b1-4)Man(a1-6)]Man(b1-4)GlcNAc(b1-4)GlcNAc
# Outline: as §1
# [9] = target: Neu5Ac(a2-3)Gal(b1-4)GlcNAc(b1-2)[Neu5Ac(a2-3)Gal(b1-4)GlcNAc(b1-6)]Man(a1-6)[Neu5Ac(a2-3)Gal(b1-4)GlcNAc(b1-2)Man(a1-3)]Man(b1-4)GlcNAc(b1-4)GlcNAc
# Outline: as §1
# [10] = target: Neu5Ac(a2-3)Gal(b1-4)GlcNAc(b1-2)[Neu5Ac(a2-3)Gal(b1-4)GlcNAc(b1-6)]Man(a1-6)[Neu5Ac(a2-3)Gal(b1-4)GlcNAc(b1-2)Man(a1-3)][GlcNAc(b1-4)]Man(b1-4)GlcNAc(b1-4)GlcNAc
# Outline: as §1
# [11] = target: Neu5Ac(a2-3)Gal(b1-4)GlcNAc(b1-3)Gal
# Outline: as §1
# [12] = target: Neu5Ac(a2-3)Gal(b1-4)GlcNAc(b1-3)Gal(b1-3)GlcNAc
# Outline: as §1
# [13] = target: Neu5Ac(a2-3)Gal(b1-4)GlcNAc(b1-3)Gal(b1-4)GlcNAc
# Outline: as §1
# [14] = target: Neu5Ac(a2-3)Gal(b1-4)GlcNAc(b1-3)Gal(b1-4)GlcNAc(b1-2)Man(a1-3)[Neu5Ac(a2-3)Gal(b1-4)GlcNAc(b1-3)Gal(b1-4)GlcNAc(b1-2)Man(a1-6)]Man(b1-4)GlcNAc(b1-4)GlcNAc
# Outline: as §1
# [15] = target: Neu5Ac(a2-3)Gal(b1-4)GlcNAc(b1-3)Gal(b1-4)GlcNAc(b1-3)Gal(b1-4)GlcNAc
# Outline: as §1
# [16] = target: Neu5Ac(a2-3)Gal(b1-4)GlcNAc(b1-3)Gal(b1-4)GlcNAc(b1-3)Gal(b1-4)GlcNAc(b1-2)Man(a1-3)[Neu5Ac(a2-3)Gal(b1-4)GlcNAc(b1-3)Gal(b1-4)GlcNAc(b1-3)Gal(b1-4)GlcNAc(b1-2)Man(a1-6)]GalNAc
# Outline: as §1
# [17] = target: Neu5Ac(a2-3)Gal(b1-4)GlcNAc(b1-3)Gal(b1-4)GlcNAc(b1-3)GalNAc
# Outline: as §1
# [18] = target: Neu5Ac(a2-3)Gal(b1-4)GlcNAc(b1-3)Gal(b1-4)GlcNAc(b1-3)[Neu5Ac(a2-3)Gal(b1-4)GlcNAc(b1-3)Gal(b1-4)GlcNAc(b1-6)]GalNAc
# Outline: as §1
# [19] = target: Neu5Ac(a2-3)Gal(b1-4)GlcNAc(b1-3)Gal(b1-4)GlcNAc(b1-6)[Gal(b1-3)]GalNAc
# Outline: as §1
# [20] = target: Neu5Ac(a2-3)Gal(b1-4)GlcNAc(b1-3)Gal(b1-4)[Fuc(a1-3)]GlcNAc
# Outline: as §1
# [21] = target: Neu5Ac(a2-3)Gal(b1-4)GlcNAc(b1-3)GalNAc
# Outline: as §1
# [22] = target: Neu5Ac(a2-3)Gal(b1-4)GlcNAc(b1-3)[Neu5Ac(a2-3)Gal(b1-4)GlcNAc(b1-6)]GalNAc
# Outline: as §1
# [23] = target: Neu5Ac(a2-3)Gal(b1-4)GlcNAc(b1-6)GalNAc
# Outline: as §1
# [24] = target: Neu5Ac(a2-3)Gal(b1-4)GlcNAc(b1-6)[Gal(b1-3)]GalNAc
# Outline: as §1
# [25] = target: Neu5Ac(a2-3)Gal(b1-4)GlcNAc(b1-6)[Neu5Ac(a2-3)Gal(b1-3)]GalNAc
# Outline: as §1
# [26] = target: Neu5Ac(a2-3)Gal(b1-4)GlcNAc6S
# Outline: as §1
# [27] = target: Neu5Ac(a2-3)Gal(b1-4)[Fuc(a1-3)]GlcNAc
# Outline: as §1
# [28] = target: Neu5Ac(a2-3)Gal(b1-4)[Fuc(a1-3)]GlcNAc(b1-2)Man
# Outline: as §1
# [29] = target: Neu5Ac(a2-3)Gal(b1-4)[Fuc(a1-3)]GlcNAc(b1-3)Gal
# Outline: as §1
# [30] = target: Neu5Ac(a2-3)Gal(b1-4)[Fuc(a1-3)]GlcNAc(b1-3)Gal(b1-4)GlcNAc
# Outline: as §1
# [31] = target: Neu5Ac(a2-3)Gal(b1-4)[Fuc(a1-3)]GlcNAc(b1-3)Gal(b1-4)[Fuc(a1-3)]GlcNAc(b1-3)Gal(b1-4)[Fuc(a1-3)]GlcNAc
# Outline: as §1
# [32] = target: Neu5Ac(a2-3)Gal(b1-4)[Fuc(a1-3)]GlcNAc(b1-3)GalNAc
# Outline: as §1
# [33] = target: Neu5Ac(a2-3)Gal(b1-4)[Fuc(a1-3)]GlcNAc(b1-6)[Gal(b1-3)]GalNAc
# Outline: as §1
# [34] = target: Neu5Ac(a2-3)Gal(b1-4)[Fuc(a1-3)]GlcNAc(b1-6)[Neu5Ac(a2-3)Gal(b1-3)]GalNAc
# Outline: as §1
# [35] = target: Neu5Ac(a2-3)Gal(b1-4)[Fuc(a1-3)]GlcNAc6S
# Outline: as §1
# [36] = target: Neu5Ac(a2-3)Gal6S(b1-4)GlcNAc
# Outline: as §1
# [37] = target: Neu5Ac(a2-3)Gal6S(b1-4)[Fuc(a1-3)]GlcNAc
# Outline: as §1
# Neu5Ac(a2-3)GalNAc = target: Neu5Ac(a2-3)GalNAc
# Outline: as §1
binder,measurement,setting,value
FimA-N1 (Actinomyces oris) (protein) MHHHHHHSSGVDLGTENLYFQSNATETPNYGNIKTDATGSLVIHKHLTGGGKDIGTPTGTAQNADDKGPAVEGVVFTAYPITDINLKDPAGWDTISNLSRTGVPDSACANPAAPTLGAHQFGTPKVSPATTKEGLATITEMPVQAYLVCETTTPGDIVQKAKPFVVTIPHPNTAAGADGQWIYDVNVYPKNEAIDVDKTIQAQK,glycan array binding signal (z-score),[1],-0.146
same,glycan array binding signal (z-score),[2],0.189
same,glycan array binding signal (z-score),[3],-0.199
same,glycan array binding signal (z-score),[4],-0.075
same,glycan array binding signal (z-score),[5],-0.355
same,glycan array binding signal (z-score),[6],-0.244
same,glycan array binding signal (z-score),[7],-0.149
same,glycan array binding signal (z-score),[8],0.037
same,glycan array binding signal (z-score),[9],-0.205
same,glycan array binding signal (z-score),[10],-0.572
same,glycan array binding signal (z-score),[11],-0.466
same,glycan array binding signal (z-score),[12],-0.379
same,glycan array binding signal (z-score),[13],0.158
same,glycan array binding signal (z-score),[14],0.014
same,glycan array binding signal (z-score),[15],-0.142
same,glycan array binding signal (z-score),[16],2.52
same,glycan array binding signal (z-score),[17],0.148
same,glycan array binding signal (z-score),[18],-0.021
same,glycan array binding signal (z-score),[19],-0.419
same,glycan array binding signal (z-score),[20],-0.16
same,glycan array binding signal (z-score),[21],-0.181
same,glycan array binding signal (z-score),[22],-0.03
same,glycan array binding signal (z-score),[23],-0.039
same,glycan array binding signal (z-score),[24],-0.173
same,glycan array binding signal (z-score),[25],-0.184
same,glycan array binding signal (z-score),[26],-0.095
same,glycan array binding signal (z-score),[27],-0.353
same,glycan array binding signal (z-score),[28],-0.08
same,glycan array binding signal (z-score),[29],-0.315
same,glycan array binding signal (z-score),[30],0.242
same,glycan array binding signal (z-score),[31],-0.108
same,glycan array binding signal (z-score),[32],0.263
same,glycan array binding signal (z-score),[33],0.446
same,glycan array binding signal (z-score),[34],0.271
same,glycan array binding signal (z-score),[35],-0.08
same,glycan array binding signal (z-score),[36],-0.453
same,glycan array binding signal (z-score),[37],-0.34
same,glycan array binding signal (z-score),Neu5Ac(a2-3)GalNAc,-0.393
